Results on 24 compounds are retold here after PMC4336329 (PLoS ONE, 2015).

In all, about 310,000 compounds went through this assay and about 2,200 (0.71%) showed an effect of 50% or more. The effect is printed as a negative number. The list shows a part of the results.

For the experiment, the target named is human ether-à-go-go-related gene (hERG) potassium channel (human, UniProt Q12809). Nature of the experiment: primary screen, population patch clamp on CHO cells stably expressing hERG.
human ether-à-go-go-related gene (hERG) potassium channel, sequence (Q12809 whole entry, looked up): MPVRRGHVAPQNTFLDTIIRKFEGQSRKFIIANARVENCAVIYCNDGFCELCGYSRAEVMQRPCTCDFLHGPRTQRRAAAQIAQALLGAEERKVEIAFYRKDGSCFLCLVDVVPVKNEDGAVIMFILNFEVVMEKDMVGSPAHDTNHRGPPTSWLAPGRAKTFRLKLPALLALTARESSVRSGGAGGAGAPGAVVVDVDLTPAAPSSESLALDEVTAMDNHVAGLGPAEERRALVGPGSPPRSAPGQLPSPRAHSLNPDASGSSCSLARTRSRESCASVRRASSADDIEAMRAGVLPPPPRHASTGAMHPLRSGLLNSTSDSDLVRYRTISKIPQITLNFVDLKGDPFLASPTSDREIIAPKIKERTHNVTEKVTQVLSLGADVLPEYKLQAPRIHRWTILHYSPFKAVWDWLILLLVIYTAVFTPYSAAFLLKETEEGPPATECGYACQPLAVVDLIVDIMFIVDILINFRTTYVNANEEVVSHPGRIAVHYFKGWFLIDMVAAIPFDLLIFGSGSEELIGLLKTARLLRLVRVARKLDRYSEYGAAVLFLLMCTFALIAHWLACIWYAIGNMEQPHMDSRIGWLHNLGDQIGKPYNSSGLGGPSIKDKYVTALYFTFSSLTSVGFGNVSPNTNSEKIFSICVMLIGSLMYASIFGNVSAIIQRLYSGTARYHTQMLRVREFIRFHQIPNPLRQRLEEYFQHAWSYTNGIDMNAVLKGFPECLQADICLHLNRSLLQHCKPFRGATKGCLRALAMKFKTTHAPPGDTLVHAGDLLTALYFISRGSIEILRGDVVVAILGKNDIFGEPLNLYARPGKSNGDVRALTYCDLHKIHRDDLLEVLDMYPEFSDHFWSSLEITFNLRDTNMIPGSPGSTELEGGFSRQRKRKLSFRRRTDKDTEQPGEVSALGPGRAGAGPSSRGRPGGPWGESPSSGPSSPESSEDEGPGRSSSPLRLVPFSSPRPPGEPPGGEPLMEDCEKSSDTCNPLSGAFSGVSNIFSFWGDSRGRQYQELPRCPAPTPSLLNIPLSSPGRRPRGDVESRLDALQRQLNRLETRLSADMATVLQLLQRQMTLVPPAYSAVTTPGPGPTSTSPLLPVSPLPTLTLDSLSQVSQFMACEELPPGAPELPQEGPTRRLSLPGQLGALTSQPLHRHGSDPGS
With `CN(C)CCCN(C(=O)c1ccc(S(=O)(=O)N2CCOCC2)cc1)c1nc2ccc(F)cc2s1.Cl`, the “hERG current change (%, negative = inhibition) at 1uM” value was -24.3%.

Take `CCc1ccc(C(=O)c2cc3ccc(O)cc3oc2=O)cc1`: the “hERG current change (%, negative = inhibition) at 1uM” value is listed as 10.2%.

`CCOC(=O)c1cc2sc(C)cc2n1CC(=O)NCCc1ccccc1`: the “hERG current change (%, negative = inhibition) at 1uM” value came out at 14.1%.

Regarding `C/C(=N\N=C1\NC(=O)CC(C(=O)O)S1)c1ccc(F)cc1` (stereo not drawn), the “hERG current change (%, negative = inhibition) at 1uM” value worked out at 5.88%.

For `O=C(O)CCCCCn1c(SCC(=O)Nc2ccc(F)cc2)nc2ccsc2c1=O`, the “hERG current change (%, negative = inhibition) at 1uM” value is recorded as -5.56%.

`O=C(COC(=O)c1ncc(Cl)c(Cl)c1Cl)c1ccc(Cl)s1`: the “hERG current change (%, negative = inhibition) at 1uM” value is listed as 11%.

For the compound `CCCCCCCCCCOC(=O)Cn1c(COc2cccc(OC)c2)[n+](C)c2ccccc21.[Cl-]`, the “hERG current change (%, negative = inhibition) at 1uM” value was -37.3%.

As for `COC(=O)c1ccc(NC(=S)N2CCN(Cc3ccc(Cl)cc3)CC2)cc1`, the “hERG current change (%, negative = inhibition) at 1uM” value is given as 19%.

For the compound `CC(C)NC(=O)CSCc1ccccc1Cl`, the “hERG current change (%, negative = inhibition) at 1uM” value is -4.23%.

On to `COCCCNC(=O)c1cc(Nc2ccc(OC)cc2OC)nc2ccccc12`, for which the “hERG current change (%, negative = inhibition) at 1uM” value is 9.04%.

Regarding `O=C(/C=C/c1ccc(Cl)cc1Cl)N1CCN(c2ccc([N+](=O)[O-])c(N3CCOCC3)c2)CC1`, the “hERG current change (%, negative = inhibition) at 1uM” value came to 6.87%.

Consider `CC(C)CNC(=O)C(=O)N/N=C/c1cccs1`, for which the “hERG current change (%, negative = inhibition) at 1uM” value came out at 13.4%.

With `COc1ccc(CCNC(=O)C(=O)NCC2OCCN2S(=O)(=O)c2ccc(OC)cc2)cc1` (stereo not drawn), the “hERG current change (%, negative = inhibition) at 1uM” value is listed as -8.98%.

As for `Cc1cc2c(c(=O)n1CCc1ccccc1)C(C(C)C)C(C#N)=C(N)O2` (stereo not drawn), the “hERG current change (%, negative = inhibition) at 1uM” value is 7.63%.

As for `O=C(c1ccccc1)N1CN2CN(C(=O)c3ccccc3)CC([N+](=O)[O-])(C2)C1`, the “hERG current change (%, negative = inhibition) at 1uM” value is reported as 18.8%.

Turning to `Cc1sc(NC(=O)Cn2nc(C(F)(F)F)cc2C)c(C(=O)OC(C)C)c1C`, the “hERG current change (%, negative = inhibition) at 1uM” value was found to be 10.6%.

Consider `O=C(NCCn1cccn1)C1CCC(=O)N(CCc2cccc(F)c2)C1` (stereo not drawn), for which the “hERG current change (%, negative = inhibition) at 1uM” value is 4.19%.

On to `CCC(CC)C(=O)Nc1ccc(C)cc1O`, for which the “hERG current change (%, negative = inhibition) at 1uM” value came out at 18%.

On to `O=c1c2ccccc2cnn1-c1ccc2ccccc2c1`, for which the “hERG current change (%, negative = inhibition) at 1uM” value worked out at 7.5%.

With `O=C(CCN1C(=O)S/C(=C\c2ccccc2)C1=O)N1CCCCC1`, the “hERG current change (%, negative = inhibition) at 1uM” value is reported as 6.47%.

Take `COc1ccc(CNC(=O)CN(C(=O)c2snc(C(N)=O)c2N)c2cccc(F)c2)cc1`: the “hERG current change (%, negative = inhibition) at 1uM” value is reported as 4.82%.

As for `COc1cc(/C=N\NC(=O)c2cccnc2)ccc1OC(=O)c1ccccc1Cl`, the “hERG current change (%, negative = inhibition) at 1uM” value is -1.22%.

Consider `CCOc1ccc(NC(=O)CCN2C(=O)CSc3ccccc32)cc1`, for which the “hERG current change (%, negative = inhibition) at 1uM” value is -5.03%.

In the case of `Cc1cccn2c(=O)c(/C=C(\C#N)S(=O)(=O)c3ccccc3)c(N3CCCCC3)nc12`, the “hERG current change (%, negative = inhibition) at 1uM” value worked out at 12.9%.
